Paper PMC4336329 (PLoS ONE, 2015)
In all, about 310,000 compounds went through this assay and about 14,000 (4.5%) showed an effect of 50% or more. Effects have a minus sign here. The list shows a part of the results.

Target: human ether-à-go-go-related gene (hERG) potassium channel (human, UniProt Q12809)
Assay: primary screen, population patch clamp on CHO cells stably expressing hERG
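Further: peak tail current of the secondary pulse compared with the same well before compound.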

Sequence of human ether-à-go-go-related gene (hERG) potassium channel (Q12809 whole entry, looked up): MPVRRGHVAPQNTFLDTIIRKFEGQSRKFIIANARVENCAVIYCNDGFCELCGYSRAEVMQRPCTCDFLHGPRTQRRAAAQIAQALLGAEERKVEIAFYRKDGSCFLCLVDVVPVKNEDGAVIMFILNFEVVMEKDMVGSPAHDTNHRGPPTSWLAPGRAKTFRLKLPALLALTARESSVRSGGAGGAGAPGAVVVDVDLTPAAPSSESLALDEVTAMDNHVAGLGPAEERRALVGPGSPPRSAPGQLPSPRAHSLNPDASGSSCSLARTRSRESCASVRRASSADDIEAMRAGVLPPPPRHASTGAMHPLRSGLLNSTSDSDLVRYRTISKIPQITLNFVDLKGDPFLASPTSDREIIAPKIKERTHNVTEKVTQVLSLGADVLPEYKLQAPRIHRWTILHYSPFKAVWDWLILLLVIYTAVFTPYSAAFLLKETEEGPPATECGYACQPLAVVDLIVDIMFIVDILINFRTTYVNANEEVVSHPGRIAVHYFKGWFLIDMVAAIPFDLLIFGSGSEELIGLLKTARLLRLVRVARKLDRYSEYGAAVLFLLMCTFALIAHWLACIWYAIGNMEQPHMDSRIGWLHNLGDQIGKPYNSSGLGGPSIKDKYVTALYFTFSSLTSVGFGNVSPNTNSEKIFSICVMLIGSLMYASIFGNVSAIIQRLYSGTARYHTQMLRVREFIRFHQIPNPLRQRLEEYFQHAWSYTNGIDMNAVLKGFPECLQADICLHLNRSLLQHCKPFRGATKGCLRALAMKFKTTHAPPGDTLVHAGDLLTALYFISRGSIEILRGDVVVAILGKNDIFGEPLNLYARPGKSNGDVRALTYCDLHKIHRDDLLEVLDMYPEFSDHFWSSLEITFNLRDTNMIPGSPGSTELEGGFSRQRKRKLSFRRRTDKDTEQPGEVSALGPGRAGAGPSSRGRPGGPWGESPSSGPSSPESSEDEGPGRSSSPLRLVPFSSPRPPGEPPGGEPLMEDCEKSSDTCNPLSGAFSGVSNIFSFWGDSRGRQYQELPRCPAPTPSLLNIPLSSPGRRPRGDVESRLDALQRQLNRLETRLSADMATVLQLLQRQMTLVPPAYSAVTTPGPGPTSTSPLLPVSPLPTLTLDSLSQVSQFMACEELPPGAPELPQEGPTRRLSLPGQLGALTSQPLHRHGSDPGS

SMILES	hERG current change (%, negative = inhibition) at 10uM [%]
CCCCN1C(=O)/C(=C2/Sc3ccc(OC)cc3N2CC)SC1=S	25.5
CC1CN(C(=S)NC(=O)c2ccccc2)CC(C)O1 (stereo not drawn)	28.1
CC(O)CNCc1ccccc1C(F)(F)F.Cl (stereo not drawn)	8.11
COCCn1c(C)cc(/C=C2/NC(=O)N(c3cccc(Cl)c3)C2=O)c1C	2.18
O=C(CSc1nc2ccccc2s1)Nc1cc(C(=O)O)cc(C(=O)O)c1	1.17
COc1ccc(S(=O)(=O)N(CC(=O)N2CCOCC2)c2ccc(F)cc2)cc1OC	10.7
COc1ccc(NC(=O)CN2C(=O)c3ccccc3Sc3ccc(C(=O)N4CCOCC4)cc32)c(OC)c1	-3.05
CC(=O)Nc1ccc(S(=O)(=O)N2CCc3ccccc3C2)cc1	3.65
c1cc2c(cc1CN1CCOCC1)OCO2	20.9
COc1ccc(NC(=O)COC(=O)Cc2ccc(Br)cc2)cc1	10.5
S=C(NCC1CCCO1)Nc1ccccc1 (stereo not drawn)	25.5
CCc1nnc(NC(=O)Cn2ccc(C(F)(F)F)n2)s1	19.2
COc1ccccc1CN1CCN(C(=O)COc2ccccc2)CC1	-8.47
CCC1CCCCN1C(=O)CSc1nc(C)cc(C)n1 (stereo not drawn)	-12.8
CCCn1c(SCC(=O)NC2CCCCC2C)n[nH]c1=O (stereo not drawn)	4.21
O=C(CCl)NCc1cc(-c2ccc(Cl)cc2)no1	22.9
COc1ccc(-c2cnn3c(N)c(S(=O)(=O)C(C)(C)C)cnc23)cc1	1.47
O=C(N/N=C/c1coc2ccccc2c1=O)c1ccncc1	18.9
Cc1ccc(S(=O)(=O)N2CCC(C(=O)N3CCN(Cc4ccccc4)CC3)CC2)cc1	-26
CC(=O)C(=Cc1ccc(C(=O)O)cc1)C(C)=O	21.6
CCOC(=O)N1CCN(C2CC(=O)N(c3ccc(Oc4ccccc4)cc3)C2=O)CC1 (stereo not drawn)	-26.6
C/C=C(\C)C(=O)NCCN1C2=NC[C@@H](Cc3ccccc3)N2C[C@H]1Cc1ccc(O)cc1	12.8
Cc1ccc(OCCn2nc3ccccc3n2)c(C)c1	-4.53

SMILES	hERG current change (%, negative = inhibition) at 10uM [%]
CC1CCN(C(=O)COc2ccc3ccccc3c2Br)CC1	11.8
COC(=O)[C@H](Cc1ccccc1)NC(=O)NCCC1=CCCCC1	-11.6
CCCCOc1ccc(NC(=O)[C@@H]2CCCN2C(=O)C2CCN(S(=O)(=O)c3ccc(C)cc3)CC2)cc1	-12.3
Nc1cc(=O)[nH]c(SCC(=O)NNC(=O)Cc2ccccc2)n1	24.5
CCN(CC)S(=O)(=O)c1ccc(N2CCCCC2)c(NC(=O)/C=C/c2ccc(OC)c(OC)c2)c1	-20.7
CCn1c(SCC(=O)NCCc2ccc(OC)c(OC)c2)nc2c1c(=O)n(C)c(=O)n2C	-4.63
O=c1c2[nH]c3ccccc3c2nc2n1CCS2	3.75
CCOC(=O)c1cnc2c(cnn2C)c1NCCCn1ccnc1	-35.9
CC12CCC(=O)N1C(C(=O)Nc1ccc(F)c(Cl)c1)CS2 (stereo not drawn)	-8.77
O=C(CCN1C(=O)/C(=C\c2ccccc2)SC1=S)N1CCCCC1	18.4
O=C(Nc1nccs1)c1ccc2ccccc2n1	20.3
Cc1cc(C)nc(NC(=O)c2ccc(C)c([N+](=O)[O-])c2)n1	-2.76
Cc1cccc(OCC(=O)NNC(=O)c2ccc3nc[nH]c3c2)c1	12
CC(=O)N1CCN(c2ccc(NC(=O)c3ccc(Br)o3)cc2Cl)CC1	-55.3
O=C(Nc1cc(Cl)ccc1Cl)C1Cc2ccccc2O/C1=N\O (stereo not drawn)	-0.26
C/C=C/c1ccc(OCCCCOc2c(OC)cccc2OC)c(OC)c1	7.41
Oc1ccc(C=Nc2cccc3ccccc23)c(O)c1	13.4
C=CCn1c(SCc2nc3sc4c(c3c(=O)[nH]2)CCCC4)nc2ccccc2c1=O	1.55
O=C(CN1CCc2ccccc21)Nc1ccc2c(c1)OCO2	11.4
COc1ccccc1C1SCCN1S(C)(=O)=O (stereo not drawn)	-0.718
O=C(Nc1ccc2nn(-c3ccccc3)nc2c1)c1ccc2c(c1)OCCO2	26.3
CCn1ncc(/C=N/O)c1C	6.93
